# According to PubChem BioAssay AID1240 (Sanford-Burnham Center for Chemical Genomics, 2008):
# The campaign covered roughly 50,000 compounds. About 800 (1.6%) showed an effect of 50% or more. Some of the results follow.
# Biological target: Bcl-2-like protein 10 (Homo sapiens) (UniProt Q9HD36)
# Experiment: TR3 peptide-Bcl-B binding displacers, biochemical primary FP assay, phenotype converters (AID 1240);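 also: 0% = Bcl-B with tracer peptide and DMSO and 100% = tracer peptide lacking Bcl-B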
# Conditions: GST-Bcl-B / FITC-TR3 peptide fluorescence polarization; stronger effect = higher value; compound at 3.75 mg/L
# UniProt Q9HD36, sequence (Q9HD36 whole entry, looked up): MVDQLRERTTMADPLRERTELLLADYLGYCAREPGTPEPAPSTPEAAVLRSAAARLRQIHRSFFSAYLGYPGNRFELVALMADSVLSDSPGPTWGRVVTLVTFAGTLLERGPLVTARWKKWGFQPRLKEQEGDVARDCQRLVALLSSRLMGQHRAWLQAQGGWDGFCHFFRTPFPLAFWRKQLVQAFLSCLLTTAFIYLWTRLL
row,Structure (SMILES),displacement [%]
1,COc1ccc(CCN2C(=O)CSC2c2cccc([N+](=O)[O-])c2)cc1OC (stereo not drawn),-8.5
2,CC1(C)CC(NC(=O)CN2CCN(CC(=O)NC3CC(C)(C)NC(C)(C)C3)CC2)CC(C)(C)N1,5.2
3,Cc1cccc(C2(c3cccc(C)c3)CC2C(=O)N2CCCCC2)c1 (stereo not drawn),-2.3
4,COc1cc(/C=C2\SC(=S)N(C)C2=O)cc(Br)c1O,-47.9
5,CC(=O)OC1(C#CCl)CCCCC1,-8.7
6,O=C(Oc1ccc2c(=O)c(Oc3ccccc3Br)coc2c1)c1ccccc1,1.6
7,O=C1NC(=O)N(c2ccccc2)C(=O)/C1=C\c1cccn1-c1cccc([N+](=O)[O-])c1,-2.6
8,COc1ccccc1NC(=O)C1=C(C)NC(=S)NC1c1ccccc1F (stereo not drawn),-19.5
9,COC(=O)c1c(NC(=O)c2ccc(C)c([N+](=O)[O-])c2)sc2c1CCC2,-2.9
10,O=C(NN1C(=O)C2CCCCC2C1=O)c1ccccc1Cl (stereo not drawn),4.9
11,O=C(c1ccc(Cl)cc1)N1CCN(c2ccc([N+](=O)[O-])c(N3CCOCC3)c2)CC1,8.8
12,CC(=O)N(C)c1ccc(NC(=O)c2ccc(C(=O)Nc3ccc(N(C)C(C)=O)cc3)cc2)cc1,8.5
13,C=CCn1c(SCC(=O)NCCO)nc2sc3c(c2c1=O)CCCC3,4.4
14,Cc1ccc(N2CC(C(=O)Nc3cccc(Cl)c3C)CC2=O)cc1 (stereo not drawn),8
15,COc1ccc(CCNC(=O)c2ccccc2F)cc1OC,-7.4
16,Cc1ccc(C2/C(=C(\O)c3ccccc3)C(=O)C(=O)N2CCCCCC(=O)O)cc1 (stereo not drawn),-2.3
17,CCOC(=O)c1c(C)oc2ccc(NS(=O)(=O)c3ccc4ccccc4c3)cc12,3.6
18,COC(=O)C1=C(C)NC2=C(C(=O)CCC2)C1c1ccc(I)cc1 (stereo not drawn),3.1
19,CC1(C)CC(=O)c2cnc(NC(=O)C3CCCC3)nc2C1,-5.1
20,COc1cccc(NC(=O)C2C(c3ccccc3)C2(Cl)Cl)c1 (stereo not drawn),1.8
21,CC(=O)c1ccc(NC(=S)NC(NC(=O)c2ccco2)C(Cl)(Cl)Cl)cc1 (stereo not drawn),3
22,OCCCNC(Nc1ccccc1)=C(c1ccccc1)c1ccccc1,-8.4

row,Structure (SMILES),displacement [%]
1,O=C(Nc1ccccc1F)c1cc(-c2ccco2)nc2ccccc12,5.2
2,Cc1cccc(C(=O)Nc2sc3c(c2C(=O)N2CCN(C)CC2)CCCCC3)c1,5.6
3,CCn1ccnc1C(O)c1ccccc1 (stereo not drawn),3.3
4,COc1ccc(C2CC(=O)C3=C(C2)Nc2ccccc2NC3c2cccc(Oc3ccccc3)c2)cc1OC (stereo not drawn),5.3
5,CN(Cc1ccccc1)C1CC(=O)N(c2cc(Cl)cc(Cl)c2)C1=O (stereo not drawn),3.8
6,CCOC(=O)C(=CNc1ccccc1[N+](=O)[O-])C(=O)OCC,-10.4
7,CC1CN(S(=O)(=O)c2ccc3c(c2)C(=O)c2cc(S(=O)(=O)N4CC(C)OC(C)C4)ccc2-3)CC(C)O1 (stereo not drawn),-6
8,CC1=NN(C(=O)c2cccc(O)c2)C(O)(c2ccc(Br)cc2)C1 (stereo not drawn),2.8
9,CCOC(=O)NC12CC3CC(C1)CC(C(F)(F)F)(C3)C2,3.2
10,Cc1ccc(-c2nc3ccccc3o2)cc1NC(=O)/C=C/c1cccc([N+](=O)[O-])c1,74.2
11,FC1(F)C2C3OC(C4C5C=CC(O5)C34)C2C1(F)F (stereo not drawn),12.8
12,CC(C)COc1ccc(C(=O)Nc2cc(Cl)ccc2Cl)cc1,13.4
13,CC1(C)CC(=O)C2=C(C1)Nc1ccccc1NC2c1ccc(-c2ccccc2[N+](=O)[O-])o1 (stereo not drawn),-15.9
14,O=C(O)CSc1nnc2c(n1)[nH]c1ccccc12,3.1
15,Cn1c2ccc(Br)cc2c2n[nH]c(=S)nc21,-8.1
16,COC(=O)c1ccc(N2CCOCC2)c([N+](=O)[O-])c1,9.5
17,CCOc1ccc(Br)cc1C=Nc1c(C)n(C)n(-c2ccccc2)c1=O,-1.8
18,COCCOC(=O)c1ccc(NC(=O)c2ccc(C)c([N+](=O)[O-])c2)cc1,-8.6
19,CSc1nsc(SC)c1NC(=O)OCc1ccccc1,17.7
20,COc1ccc2c(c1)CCC/C2=N/OC(=O)c1ccc(OC)c([N+](=O)[O-])c1,-6.5
21,O=C1C(Cl)=C(NCCc2ccccc2)C(=O)N1c1cccc(Cl)c1Cl,15.4
22,COc1ccc(N(CC(=O)NC(C)C)S(C)(=O)=O)c(OC)c1,-1.9

row,Structure (SMILES),displacement [%]
1,COc1ccc(OC)c(NC(=S)NC(=O)c2ccccc2Cl)c1,11.8
2,Cc1ccc(N2C(=O)CC(N3CCC(C)CC3)C2=O)cc1 (stereo not drawn),3.3
3,CCOC(=O)c1ccccc1NC(=O)CCc1ccccc1,-1.5
4,O=C(CSc1n[nH]c(=O)[nH]c1=O)c1ccc(Cl)cc1,-6.1
5,CCOC(=O)C1=C(C)N=c2s/c(=C/c3c[nH]c4ccccc34)c(=O)n2C1c1ccc(F)cc1 (stereo not drawn),9.1
6,COc1ccc(N2C(=O)c3ccccc3NC2c2cc(OC)c(OC)c(OC)c2)cc1 (stereo not drawn),10.3
7,CCOc1ccc(NC(=O)CN(c2ccc(OC)cc2)S(C)(=O)=O)cc1,-0.1
8,CCc1cccc(NC2(c3ccccc3)C(=O)c3ccccc3C2=O)c1,-0.9
9,CC(=Nc1ccccc1C(F)(F)F)C1=C(O)c2ccccc2C1=O,-6.2
10,COc1ccccc1OCC(=O)NCc1cccnc1,-4.2
11,O=c1cc(-c2ccccc2)c2ccc(OCc3ccccc3F)cc2o1,9.8
12,N#C/C(=C\c1ccc(-c2cccc([N+](=O)[O-])c2)o1)C(=O)Nc1ccccc1O,3.9
13,CC1=C(C(=O)OCCc2ccccc2)C(c2ccc(Br)cc2)NC(=O)N1 (stereo not drawn),-2.6
14,O=C1CC(N2CCN(c3ccccc3F)CC2)C(=O)N1c1ccccc1 (stereo not drawn),-7.4
15,O=C1C(=O)N(CN2CCN(CN3C(=O)C(=O)c4ccccc43)C2)c2ccccc21,-0.3
16,Cc1ccc(-c2nn3c(=O)cc(N4CCN(c5ccc(C(F)(F)F)cc5[N+](=O)[O-])CC4)nc3s2)cc1,13.6
17,CCOC(=O)CSc1nnc(CCCN2C(=O)c3cccc4cccc(c34)C2=O)n1-c1ccccc1,3.5
18,CCOC(=O)c1sc(NC(=O)c2cccc3ccccc23)nc1C,1.6
19,O=C(Nc1ccc(Br)c(Cl)c1)c1ccccc1Cl,-1.2
20,CC(C)c1ccc(NC(=O)Cc2cccc3ccccc23)cc1,-6.4
21,CCOC(=O)/C(C#N)=C1\C(=O)Nc2ccccc21,4.1
22,CCOC(=O)/C(C#N)=C/C1=Cc2c(OC)c3ccccc3n2C1=O,39.7

row,Structure (SMILES),displacement [%]
1,CC1=C(C(=O)Nc2ccc(C)cc2)C(c2ccccc2Br)NC(=O)N1 (stereo not drawn),8.2
2,Oc1ccc(Br)cc1/C=N\N1CCN(c2ccccc2)CC1,-20.9
3,O=C(NCc1cccs1)c1nn2c(c1Cl)NC(c1ccccc1)CC2C(F)(F)F (stereo not drawn),0
4,Cc1cccc(NC(=O)/C=C/c2ccc(F)cc2)c1,8.3
5,O=Cc1cn(-c2ccccc2)nc1-c1cccs1,1.8
6,c1ccc(OCC2=NNC(COc3ccccc3)=NN2)cc1,9.1
7,COc1ccccc1N1C(=O)CC(N2CCN(Cc3ccc4c(c3)OCO4)CC2)C1=O (stereo not drawn),-3.5
8,CCOC(=O)C1=C(C)N=C2c3ccccc3C(=O)C2C1c1ccc(C)cc1 (stereo not drawn),-5.3
9,Cc1ccc(N2C(=O)C=CC2=O)cc1[N+](=O)[O-],12.7
10,COc1ccc(N2C(=O)c3ccccc3NC2c2c(F)c(F)c(F)c(F)c2F)cc1 (stereo not drawn),4.6
11,Nc1nnc(SCC(=O)NCC(=O)c2ccccc2)s1,-6.2
12,O=C(Nc1ccc(Cl)cc1)Nc1nnc(-c2ccccc2Cl)s1,11.8
13,CCOP(=O)(OCC)C(OC(N)=O)c1ccc([N+](=O)[O-])cc1 (stereo not drawn),-9.1
14,O=C(c1ccccc1)N1CCN(c2ccc([N+](=O)[O-])cc2Cl)CC1,-4.9
15,COc1ccc2nc(/N=C(/N)NC(=O)Cc3ccc(Cl)cc3)nc(C)c2c1,11.6
16,C=CCN1C(=O)/C(=C/c2ccc(OCC)cc2O)SC1=S,-3
17,COc1ccc2oc(/C=C/N(C)C)c(C(=O)c3ccccc3)c2c1,-12
18,N#CC(C(N)=O)=C1CCC2(CC1)OCCCCO2,-0.5
19,Cc1cc(C)c(S(=O)(=O)Nc2c(C)cccc2C)c(C)c1,-1.6
20,CC1(C)CC(=O)C2=C(C1)c1cc3ccccc3cc1NC2c1cccc([N+](=O)[O-])c1 (stereo not drawn),11.9
21,Cc1cc(=O)[nH]c(NCc2ccccc2)n1,-7.4
22,CCCC(=O)Nc1ccc(Cc2ccc(NC(=O)CCC)c(C(=O)O)c2)cc1C(=O)O,9.1

row,Structure (SMILES),displacement [%]
1,CCCCn1c(=N)n(CC(O)c2ccc(Cl)cc2)c2ccccc21 (stereo not drawn),-4.6
2,O=C(NN=C1CCCC1)c1ccc(O)cc1,0.7
3,CCN1C(=O)/C(=C\C=C\c2ccccc2[N+](=O)[O-])SC1=S,-14.2
4,Cc1ccc(N2C(=O)CC(NCCN3CCOCC3)C2=O)cc1 (stereo not drawn),3.9
5,O=C(NN=C1CCCC1)c1ccncc1,-1.9
6,COc1ccc(CCN=CC2=C(O)CC(C)(C)CC2=O)cc1OC,3.2
7,Cc1cc(OCC(=O)Nc2cccc([N+](=O)[O-])c2)cc(C)c1Cl,7.8
8,Cc1ccc(NC(=O)c2cc3cc([N+](=O)[O-])ccc3oc2=O)cc1,13.5
9,Cc1cc(C)cc(N2C(=O)NC(=O)/C(=C\c3cccc(O)c3)C2=O)c1,4
10,Cc1cc(Nc2ccccc2)nc(N)n1,-12.9
11,Cc1ccc(S(=O)(=O)N/N=C/c2ccc(-c3ccc([N+](=O)[O-])cc3C)o2)cc1,52.8
12,CCCCOc1ccccc1C1C(C(=O)OC)=CNC=C1C(=O)OC,7.6
13,Cc1cccc(NC(=O)C2CC(=O)N(c3ccc(Br)cc3)C2)n1 (stereo not drawn),14.8
14,COc1cccc(NC(=O)CCN2C(=O)/C(=C/c3ccc(C)cc3)SC2=S)c1,39.1
15,CCCCCOC(=O)CSc1nnc(-c2ccccc2)o1,5.8
16,O=C(COc1ccc(Cl)cc1Cl)Nc1ccc(-c2nc3ccccc3s2)c(O)c1,33.8
17,CCOc1ccc(-n2c(C)cc(C=O)c2C)cc1,48.6
18,CC(=O)Oc1ccc2ccccc2c1C(NC(=O)Cc1ccccc1)c1ccc([N+](=O)[O-])cc1 (stereo not drawn),-11.5
19,O=C(c1ccccc1O)N(Cc1ccccc1)c1ccccn1,0.4
20,Cc1ccc(OCCNC(=O)c2cccc3ccccc23)cc1,13.8
